# From publication PMC6919601, “Identification of Plasmodium dipeptidyl aminopeptidase allosteric inhibitors by high throughput screening” (PLoS ONE, 2019)
# Several values for one entry are separate records, joined by “and”; a condition that tells them apart may be missing. Identical values can stand only once. About 230 (0.21%) of roughly 110,000 compounds showed an effect of 50% or more. The list shows a part of the results.
# Target: DPAP1 (Plasmodium falciparum, UniProt Q8IIJ9)
# Experiment: primary screen, percent inhibition; read by cleavage of a fluorogenic dipeptide substrate; higher = more effect of the substance
# Design: species or system P. falciparum D10 trophozoite lysates; single well
# 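Note: 30 min substrate incubation versus DMSO and 10 µM JCP410 controls.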
# Sequence of DPAP1 (Q8IIJ9 whole entry, looked up): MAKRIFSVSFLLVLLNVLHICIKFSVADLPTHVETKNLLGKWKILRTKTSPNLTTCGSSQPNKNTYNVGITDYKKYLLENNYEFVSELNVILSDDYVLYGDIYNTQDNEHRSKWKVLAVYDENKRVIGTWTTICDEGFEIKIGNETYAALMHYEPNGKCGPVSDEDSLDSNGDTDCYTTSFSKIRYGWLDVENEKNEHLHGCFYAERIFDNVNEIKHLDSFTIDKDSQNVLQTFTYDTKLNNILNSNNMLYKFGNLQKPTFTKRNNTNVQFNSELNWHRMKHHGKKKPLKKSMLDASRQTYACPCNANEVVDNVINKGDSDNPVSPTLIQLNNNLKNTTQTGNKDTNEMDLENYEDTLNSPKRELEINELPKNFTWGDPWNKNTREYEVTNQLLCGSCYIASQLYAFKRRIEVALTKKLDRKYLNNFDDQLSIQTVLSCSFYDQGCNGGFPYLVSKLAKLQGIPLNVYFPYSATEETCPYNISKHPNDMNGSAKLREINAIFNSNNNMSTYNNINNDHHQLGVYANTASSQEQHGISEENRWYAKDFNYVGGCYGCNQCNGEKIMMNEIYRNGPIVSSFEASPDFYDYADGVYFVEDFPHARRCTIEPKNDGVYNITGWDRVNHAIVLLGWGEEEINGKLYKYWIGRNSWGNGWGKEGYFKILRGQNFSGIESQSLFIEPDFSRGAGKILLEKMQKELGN
row,SMILES,% Inhibition @ 10 uM
1,COc1ccc(N(CC(=O)N2CCCCC2)S(C)(=O)=O)c(OC)c1,-4.88%
2,Cc1ccc(C2=N/C(=C\c3cccs3)C(=O)O2)cc1,-2.78%
3,CCOc1ccc(CC(=O)Nc2ccc(Br)cc2)cc1OCC,2.95%
4,O=C(CCn1nc(-c2ccc(Cl)cc2)c2ccccc2c1=O)N1CCCCC1,2.25%
5,COc1cc(CNC(=O)OCC(C)C)cc(OC)c1OC,0.983%
6,COc1cccc(N/C=C(\C#N)C(=O)NC(C)=O)c1,-1.06%
7,CC(C)OCCCNC(=O)C1CCN(S(C)(=O)=O)CC1,5.23%
8,CC(C)(C)c1cc(/C=C2\NC(=O)NC2=O)cc(C(C)(C)C)c1O,6.27%
9,C#CCOc1ccc(C2C3=C(CCCC3=O)N(CCC(=O)O)C3=C2C(=O)CCC3)cc1,-7.08%
10,Cc1ccc(C2=CC(c3c(F)cccc3Cl)n3ncnc3N2)cc1 (stereo not drawn),3.32%
11,CC1(C)Cc2c(c3ccccc3n2-c2ccccc2)C(C)(C)N1,-5.51%
12,Cc1ccc(-c2nc(SCCOc3ccc(Cl)cc3)n3[nH]c(=O)cc3n2)cc1,-5.33%
13,CCN(CC)CCN(C)C1CCN(CC)CC1,-2.95%
14,O=C(Nc1ccccc1C(=O)O)c1cc(S(=O)(=O)N2CCCCCC2)ccc1Cl,-8.06%
15,CCCCc1ccc(-n2c(C)cc(/C=C3/NC(=O)NC3=O)c2C)cc1,-1.6%
16,Cc1ccccc1S(=O)(=O)Cc1ccc(C(=O)NC2CCN(Cc3ccccc3)CC2)o1,-2.72%
17,c1ccc2c(CN3CCN(Cc4ccncc4)CC3)c[nH]c2c1,-1.55%
18,CC(CNc1cnn(C23CC4CC(CC(CC(=O)O)(C4)C2)C3)c(=O)c1Cl)c1ccccc1 (stereo not drawn),7.84%
19,COc1cc(C(=O)Nc2ccc(S(=O)(=O)Nc3ccc(C)cc3C)cc2)cc(OC)c1OC,0.795%
20,Nc1nc(-c2sc3nc4c(cc3c2N)CCCCC4)nc(N2CCOCC2)n1,-0.173%
21,CN1CCN(c2ccc(NC(=O)c3cccnc3Cl)cc2)CC1,1.92%
22,CCC(C(=O)NCCc1csc(-c2ccccc2)n1)c1ccccc1 (stereo not drawn),0.953%
23,O=C(Cn1ncc2c3ccccc3nc-2c1O)N1CCOCC1,1.66%
24,Cc1ccc(S(=O)(=O)N2CCC(C(=O)Nc3ccccc3O)CC2)cc1,-2.22%
25,Cc1cccn2c(=O)c3cc(C(=O)NC(c4ccccc4)c4ccccc4)n(C)c3nc12,2.25%

row,SMILES,% Inhibition @ 10 uM
1,CCSc1nc(O)c2c(n1)N=C1CC(C)(C)CC(O)=C1C2c1cc(OC)ccc1OC (stereo not drawn),-6.94%
2,COc1ccccc1/C=C/c1nc(-c2cc(C)nc3ccccc23)no1,-2.19%
3,Cc1ccc2nc(O)c3cc(C(=O)N4CCC5(CC4)OCCO5)sc3c2c1,4.41%
4,CCc1ccc(C2C(C(=O)c3ccc4c(c3)CC(C)O4)=C(O)C(=O)N2CCN2CCOCC2)cc1 (stereo not drawn),5.29%
5,COc1ccc(Cl)c(Cn2c(NCCCN(C)C)nc3c2c(=O)n(C)c(=O)n3C)c1,-6.98%
6,CSC1=NSC2=NC(=O)/C(=C\c3ccc(OS(=O)(=O)c4ccccc4)cc3)C(=N)N12,5.06%
7,COc1ccccc1C(=O)Nc1ccc(CN2CCOCC2)cc1,-2.84%
8,CC1CCCCN1C1CC(=O)N(c2ccccc2)C1=O (stereo not drawn),5.4%
9,Clc1ccccc1CSc1nc2cccnc2[nH]1,3.48%
10,COCCNS(=O)(=O)c1cc(Cl)ccc1Cl,-4.4%
11,CC(C)=CCCC(C)CN1CCCC1CO (stereo not drawn),-5.94%
12,CCOc1ccc(CN(C)CCN(C)C)cc1,0.827%
13,Cc1nc2ccc(S(=O)(=O)NC(CC(C)C)C(=O)NCc3ccccc3Cl)cc2s1 (stereo not drawn),-6.91%
14,CC(Cc1cccc(C(F)(F)F)c1)N1CCN(CCO)CC1 (stereo not drawn),0.273%
15,CCN(CC)CCNC1C2CC3CC(C2)CC1C3 (stereo not drawn),-3.6%
16,COC(=O)c1ccc2c(c1)CN(c1ccc(F)cc1)C2,-10.7%
17,CCc1ccc(C2=NN(CCC(=O)NCCN3CCN(Cc4ccccc4)CC3)C(=O)CC2)cc1,-2.72%
18,COc1ccc(C2(C#N)CCC(OC(C)=O)CC2)cc1OC (stereo not drawn),0.774%
19,Cc1cc(F)c(F)cc1C(=O)N1CCCCC1,5%
20,CC(=O)c1ccc(NC(=O)c2ccccc2F)cc1,-2.03%
21,CCOC(=O)/C(O)=C1\C=NC2C=CC=CC12 (stereo not drawn),-2.15%
22,COc1ccc(-c2cn3nc(N4CCCC(C(=O)N5CCOCC5)C4)sc3n2)cc1 (stereo not drawn),-1.41%
23,O=C1CC(c2cccc(O)c2)C2=C(CC(c3ccc(F)cc3)CC2=O)N1 (stereo not drawn),1.97%
24,Cc1ccccc1S(=O)Cc1ccc(C(=O)NCCCN2CCCCC2)o1 (stereo not drawn),-2.15%
25,CC(C)CC(NC(=O)OCc1ccccc1)C(=O)NC1(C#N)CCN(C)CC1 (stereo not drawn),4.63%

row,SMILES,% Inhibition @ 10 uM
1,Cc1cccc(NC2=NC(=O)/C(=C/c3cccn3C)S2)c1,4.1%
2,O=C(CN(c1cccc(Cl)c1)S(=O)(=O)c1ccccc1)Nc1ccc2c(c1)OCO2,-3.09%
3,O=C(O)C1CCCN(S(=O)(=O)c2cccc(C(F)(F)F)c2)C1 (stereo not drawn),-4.91%
4,Cc1ccc(C(=O)N2CCN(C)CC2)cc1Cl,-14.4%
5,COc1ccccc1-c1noc(CCC(=O)NC2CCCCC2)n1,-0.666%
6,CCCCCCNC(=O)CCc1c(C)nc2c3c(C)cc(C)nc3nn2c1C,5.65%
7,O=c1c2c3c(sc2nc2n1CCCC2)CCCC3,7.78%
8,CO/C(O)=C1\C(C)=NC2=C(C(=O)CC(c3ccccc3Cl)C2)C1c1coc2ccc(C)cc2c1=O (stereo not drawn),5.44%
9,CC(C)NC(C)C(O)c1ccc2c(c1)CCCC2 (stereo not drawn),-3.57% and -1.85%
10,COc1ccc2occ(C(=O)c3ccc(/N=C(\C)N(C)C)cc3)c2c1,3.65%
11,O=C(Cc1ccc(Cl)cc1)NCc1ccco1,-2.91%
12,CC1CCCC(NC(=O)c2cc(-c3ccncc3)nc3ccccc23)C1C (stereo not drawn),1.16%
13,COc1cccc(N(CC(=O)NCc2ccc(C)cc2)S(=O)(=O)c2ccc(C)cc2)c1,-8.43%
14,CCO/C(O)=C1/C(C)=Nc2nc3ccccc3n2C1c1ccccc1F (stereo not drawn),-1.52%
15,CN(C)/C=N/c1c(C(=O)c2ccccc2)sc2nccc(N(C)C)c12,-5.98%
16,Cc1oc(-c2cccs2)nc1Cn1c(=O)cc(-c2ccccc2)c2c(C)nn(C)c21,4.13%
17,Clc1ccc(-c2noc3ncnc(N4CCC(N5CCCCC5)CC4)c23)cc1,2.54%
18,COc1ccccc1C(=O)Nc1sc2c(c1C(N)=O)CCCC2,3.82%
19,COc1ccc(CCNC(=O)c2ccc(CS(=O)(=O)c3ccc(Cl)cc3)o2)cc1OC,-2.72%
20,COc1ccc(N2CCN(Cc3ccc([N+](=O)[O-])s3)CC2)cc1,-2.56%
21,O=C(O)c1ccccc1C(=O)N1CCN(c2ccccc2Cl)CC1,0.528%
22,O=[N+]([O-])c1ccc(CN2CCC3(C=Cc4ccccc43)CC2)cc1,3.35%
23,O=C(Nc1ccc(F)cc1F)c1ccco1,-3.27%
24,COCCNC(=O)c1ccc2nc(N3CCC(C)CC3)sc2c1,-0.637%
25,CN(C)CCNc1nc2c(c(=O)n(C)c(=O)n2C)n1Cc1ccccc1Cl,-2.13%

row,SMILES,% Inhibition @ 10 uM
1,CCOc1cc(/C=C2/C(=N)N3C=CSC3=NC2=O)cc(Cl)c1OCc1ccc2c(c1)OCO2,2.04%
2,Nc1nc(-c2ccccc2)cn1N,-4.27%
3,CCc1ccc(CNC(=O)C2c3ccccc3C(=O)N(C)C2c2c[nH]c3ccccc23)cc1 (stereo not drawn),1.76%
4,COc1cc(C2C(C#N)=C(N)OC(C)=C2C(C)=O)c([N+](=O)[O-])cc1OC (stereo not drawn),-2.62%
5,COc1ccc(C2=C(C)C(NCCc3ccc(Cl)cc3)=NS2(=O)=O)cc1,-6.58%
6,O=C(Nc1nccs1)c1cc2ccccc2oc1=O,5.94%
7,Cc1ccc(CCNC(=O)c2cc(-c3ccncc3)nc3ccccc23)cc1,-3.58%
8,CCOC(=O)C1=C(O)/C(=C\c2cc(C)n(-c3ccccc3C(F)(F)F)c2C)N=C1C,52.7%
9,N=C1/C(=C\c2ccc(SCc3ccccc3)o2)C(=O)N=C2SC(c3cccnc3)=NN12,-3.45%
10,Cc1nn(-c2ccc(F)cc2)c(-n2cccc2)c1C(=O)N1CCC2(CC1)OCCO2,-4.08%
11,O=C(O)c1ccc2n[se]nc2c1,0.146%
12,Cc1cccc(N2C(=O)NC(=O)/C(=C/Nc3ccc(C(=O)N4CCOCC4)cc3)C2=O)c1,-0.661%
13,CCCCNC(=O)c1cc(OC)cc(OC)c1,-8.36%
14,Cc1sc2ccc3sccc3c2[n+]1C,0.884%
15,COc1cc(C(=O)Nc2ccc(Br)c(Cl)c2)cc(OC)c1OC,1.28%
16,O=C(Cc1csc(-c2ccccc2)n1)N1CCOCC1,7.99%
17,Cc1ccc(S(=O)(=O)N(CC(=O)NCc2ccco2)Cc2ccc(Cl)cc2Cl)cc1,-3.26%
18,CCN(CC)C(=O)c1cc(-c2ccc(OC)cc2)on1,-4.07%
19,COc1cccc(C(=O)Nc2noc3ccccc23)c1,-1.11%
20,CC(=O)c1ccc(NS(=O)(=O)c2ccc(Oc3ccc([N+](=O)[O-])cc3)cc2)cc1,-1.77%
21,CN1CCc2nc(SCc3cccc(Cl)c3)c(C#N)cc2C1,0.131%
22,CC(C)C[C@H](NC(=O)c1ccc(Cl)c(Br)c1)C(=O)NCC#N,5.86%
23,Cc1c(C(=O)NCCCN2CCCC2=O)oc2ccc3c(c12)C(=O)CC1(CCC(C)CC1)O3 (stereo not drawn),-1.08%
24,Cc1ccc2nc(NC(=O)C3C4C=CC(C4)C3C(=O)O)sc2c1 (stereo not drawn),2.79%
